Screen size: about 310,000 compounds; about 2,200 (0.71%) showed an effect of 50% or more. Effects have a minus sign here. Some of the results follow.

In this assay the target is human ether-à-go-go-related gene (hERG) potassium channel (human, UniProt Q12809). Briefly: primary screen, population patch clamp on CHO cells stably expressing hERG.
Chain of human ether-à-go-go-related gene (hERG) potassium channel (Q12809 whole entry, looked up): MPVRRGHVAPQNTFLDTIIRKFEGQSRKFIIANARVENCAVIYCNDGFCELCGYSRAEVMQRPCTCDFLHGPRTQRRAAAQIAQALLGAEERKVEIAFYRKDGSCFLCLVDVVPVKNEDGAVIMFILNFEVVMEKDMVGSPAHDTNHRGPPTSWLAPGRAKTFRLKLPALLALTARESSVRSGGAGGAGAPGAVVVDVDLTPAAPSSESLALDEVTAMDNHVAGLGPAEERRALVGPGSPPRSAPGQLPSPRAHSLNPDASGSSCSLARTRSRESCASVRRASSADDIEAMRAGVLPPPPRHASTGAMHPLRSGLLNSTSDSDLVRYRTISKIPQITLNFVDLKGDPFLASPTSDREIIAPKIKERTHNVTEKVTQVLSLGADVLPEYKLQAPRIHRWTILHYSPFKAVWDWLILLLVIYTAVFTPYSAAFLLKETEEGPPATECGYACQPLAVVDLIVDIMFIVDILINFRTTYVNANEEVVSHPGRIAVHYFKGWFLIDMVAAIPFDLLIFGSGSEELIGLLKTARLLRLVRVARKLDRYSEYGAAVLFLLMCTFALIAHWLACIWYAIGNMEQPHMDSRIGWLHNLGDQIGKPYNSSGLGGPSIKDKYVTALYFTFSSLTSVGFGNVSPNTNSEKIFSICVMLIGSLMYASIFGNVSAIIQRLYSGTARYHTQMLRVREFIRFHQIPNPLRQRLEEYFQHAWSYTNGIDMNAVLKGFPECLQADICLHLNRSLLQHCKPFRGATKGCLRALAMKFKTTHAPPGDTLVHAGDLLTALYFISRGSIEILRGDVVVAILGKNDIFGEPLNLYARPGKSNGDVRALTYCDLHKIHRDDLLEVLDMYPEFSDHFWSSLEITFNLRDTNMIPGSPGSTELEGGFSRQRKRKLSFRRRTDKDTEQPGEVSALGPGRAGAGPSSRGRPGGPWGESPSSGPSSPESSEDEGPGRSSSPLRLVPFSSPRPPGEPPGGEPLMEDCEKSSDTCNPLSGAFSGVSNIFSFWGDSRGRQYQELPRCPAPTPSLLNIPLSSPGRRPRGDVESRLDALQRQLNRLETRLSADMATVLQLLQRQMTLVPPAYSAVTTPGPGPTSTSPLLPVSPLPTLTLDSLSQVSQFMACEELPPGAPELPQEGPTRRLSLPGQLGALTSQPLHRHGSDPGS
Turning to `COc1cccc(CNC(=O)C2CCN(S(=O)(=O)c3ccc4c(c3)CC(C)N4C(=O)C3CC3)CC2)c1` (stereo not shown), the “hERG current change (%, negative = inhibition) at 1uM” value came out at 11.7%. Under `Cc1ccc2c3c([nH]c2c1C)-c1nonc1CC3` stands 15.6%.

For `CCN(CCCNc1ncnc2nc[nH]c12)c1cccc(C)c1`, the “hERG current change (%, negative = inhibition) at 1uM” value is -1.95%. With `Cn1c(O)c(C(=O)c2ccccc2F)c(=O)n(C)c1=O`, the “hERG current change (%, negative = inhibition) at 1uM” value was determined as 9.92%. Under `CCOc1cccc2sc(N(CCCN(C)C)C(=O)c3ccc(S(=O)(=O)N(C)Cc4ccccc4)cc3)nc12.Cl` stands -1.82%; under `CC(C)(C)OC(=O)N[C@@H](CCCCNC(=O)OCc1ccccc1)c1nnc([C@H](CCCCNC(=O)OCc2ccccc2)NC(=O)OC(C)(C)C)o1`, 5.62%. Under `O=[N+]([O-])c1ccccc1CS(=O)(=O)c1ccccc1` stands -1.73%; under `Cc1ccccc1C(=O)NC(C)c1ccc2c(c1)CCCC2` (stereo not shown), 8.7%; under `Nc1nccc(-c2nn(-c3ccc(Cl)cc3)ccc2=O)n1`, 18.5%. Under `COc1ccc(OCCSc2nc3nc(C)cc(C)n3n2)cc1` stands 5.9%; under `Nc1ncnc2c1ncn2CCN1CCCCC1`, -3.22%; under `Cc1ccc2c([N+](=O)[O-])c(C)ccc2n1`, 11.8%.

In the case of `C=CCNC(=O)CNS(=O)(=O)c1ccc(F)cc1`, the “hERG current change (%, negative = inhibition) at 1uM” value came out at 0.802%. In the case of `CCOC(=O)C(C)NC(=O)C(NC(=O)C1CCC(CC)CC1)C(C)C` (stereo not shown), the “hERG current change (%, negative = inhibition) at 1uM” value is 17.9%. Under `O=C(c1cncc(Br)c1)N1CCN(c2ccc([N+](=O)[O-])cc2)CC1` stands -62.2%; under `O=C(O)COc1ccc(=O)n(-c2ccccc2)n1`, 10.8%; under `Fc1ccc(Oc2nccc(-c3ccc(Cl)cc3)n2)cc1`, -3.21%. Under `CCOC(=O)Cc1csc(NC(=O)c2cc(C)c(C)s2)n1` stands 2.7%; under `COc1ccc(Cl)cc1NC1=NCC(C)S1` (stereo not shown), 0.429%; under `CS(=O)(=O)Oc1ccc2c(c1)O/C(=C\C=C\c1ccccc1)C2=O`, -0.714%. For the molecule `COc1ccc(OC)c(-c2csc(NC(=O)Cn3[nH]c(=O)c4ccccc4c3=O)n2)c1`, the “hERG current change (%, negative = inhibition) at 1uM” value is on record as 3.02%. Under `O=C(c1cccnc1)N1c2ccccc2Sc2ccccc21` stands 7.36%; under `O=C(CCCn1cc([N+](=O)[O-])cn1)NCc1ccccc1`, 3.22%; under `CC(=O)Nc1ccc(N(C(=O)c2cnccn2)C(C(=O)NC2CCCCC2)c2ccc(F)cc2)cc1` (stereo not shown), 12.5%. The same measure for `CC(=O)OCC(=O)NCCCOc1cccc(CN2CCCCC2)c1.Cl`: 4.98%; for `Cc1sc2c(c1C)C(c1cccs1)=NCC(=O)N2CC(=O)NCc1cccs1`: -13.7%. The same measure for `CCOC(=O)Cc1csc(NC(=S)NC(=O)c2ccccc2)n1`: 6.68%; for `CCN(CC)S(=O)(=O)c1cccc(C(=O)OCC(=O)Nc2ccc3c(c2)c2ccccc2n3CC)c1`: 10.7%. On to `CCOC(=O)C1=C(N)Oc2cc(C)oc(=O)c2C12C(=O)N1c3c(cccc32)C(C)=CC1(C)C` (stereo not shown), for which the “hERG current change (%, negative = inhibition) at 1uM” value was determined as 5.25%.

In the case of `CC1CCc2nn(CC(=O)Nc3c(F)cc(F)cc3Br)cc2C1` (stereo not shown), the “hERG current change (%, negative = inhibition) at 1uM” value was determined as 10.1%.

As to `Cc1cc(C)n2nc(C(=O)N/N=C/c3c4ccccc4cc4ccccc34)nc2n1`, the “hERG current change (%, negative = inhibition) at 1uM” value is listed as 1.16%.

Consider `Cc1[nH]c(C)c(S(=O)(=O)Nc2cccc(Cl)c2C)c1C(=O)N1CCCCC1`, for which the “hERG current change (%, negative = inhibition) at 1uM” value turned out to be 5.34%. The same measure for `O=C(c1ccc(Br)o1)N1CCN(c2ccc3nnc(-c4ccc(F)cc4)n3n2)CC1`: 5.43%; for `O=C(OCc1nnc(-c2ccc(Cl)cc2)o1)c1ccncc1`: 3.31%. The same measure for `Cc1cc2nc(CCl)cc(=O)n2[nH]1`: 14.7%; for `COc1ccc(/C=N/NC(=O)CCC(=O)Nc2ccccc2)cc1OC`: -15.7%. Under `N#Cc1ccc(C(c2nnnn2CCc2ccccc2)N2CCCCCC2)cc1` (stereo not shown) stands 2.41%. Turning to `O=C(CCNC(=O)c1ccccc1)OCC(=O)c1cccc(Cl)c1`, the “hERG current change (%, negative = inhibition) at 1uM” value was -14.2%.

Turning to `CCOc1ccc2cc(S(=O)(=O)N3CCCCC3)ccc2c1`, the “hERG current change (%, negative = inhibition) at 1uM” value is 15.9%. The same measure for `O=c1cc(-c2ccccc2Cl)oc2c(Br)ccc(O)c12`: 9.41%. The same measure for `O=C(c1cccs1)N1CCc2c([nH]c3ccccc23)C1c1ccccn1` (stereo not shown): -6.08%; for `COc1cc([N+](=O)[O-])ccc1NC(=O)/C=C\C(=O)O`: 6.98%; for `COc1ccc(CCNC(=O)c2ccccc2NC(=O)C2=C(C)OCCS2)cc1OC`: 18.8%.

Consider `Cc1ccccc1-n1c(SCC(=O)N2CCN(c3ccccc3)CC2)nnc1-c1ccncc1`, for which the “hERG current change (%, negative = inhibition) at 1uM” value is given as -3.12%.

`COc1ccc(S(=O)(=O)NC(C)C(=O)O)cc1` (stereo not shown): the “hERG current change (%, negative = inhibition) at 1uM” value amounted to 7.44%. The same measure for `CC1CCc2sc(C(=O)OCC(=O)NC(N)=O)cc2C1` (stereo not shown): 14.3%; for `CC(C)C(c1nnnn1Cc1ccccc1)N1CCc2ccccc2C1` (stereo not shown): 5.26%; for `CCN1CCN(CCNC(=O)c2ccc(CS(=O)(=O)c3ccccc3C)o2)CC1`: 1.06%. Under `CN(C)CCNC(=O)/C(=C/c1ccc(-c2cccc([N+](=O)[O-])c2)o1)NC(=O)c1ccccc1` stands -37.2%; under `CCOc1ccc(/C=C(\C(=O)O)c2ccc(S(=O)(=O)N3CCOCC3)s2)cc1OC`, 3.65%; under `COc1cc(OC)cc(-c2c(-c3cccs3)c3cc(-c4cnc(OC)nc4)ccc3n2C)c1`, 10.2%. Under `O=c1[nH]cnc2sc3c(c12)CCCCC3` stands -0.54%. Regarding `C[C@H](CCC(=O)[O-])[C@H]1CC[C@H]2[C@@H]3[C@H](O)C[C@@H]4C[C@H](O)CC[C@]4(C)[C@H]3C[C@H](O)[C@]12C.O.[Na+]`, the “hERG current change (%, negative = inhibition) at 1uM” value is recorded as 11.6%. For the molecule `O=c1c(Cc2ccc(Cl)cc2)c(O)ccn1Cc1cccs1`, the “hERG current change (%, negative = inhibition) at 1uM” value is listed as 10.3%.

Turning to `CC1(C)Cc2c(sc3[nH]c(=S)n(Cc4ccccc4)c(=O)c23)CO1`, the “hERG current change (%, negative = inhibition) at 1uM” value was found to be 8.74%.

The values are drawn from article PMC4336329 (PLoS ONE, 2015).
